Test results as given in patent US20070082856A1, “Combination therapy comprising the use of et-743 and doxorubicin for treating cancer” (Pharma Mar, S.A.U., priority 2003, published 2007).

Experiments:
[1] = system: untreated metastatic soft tissue sarcomas (STS) and advanced pre-treated anthracyline-naïve breast cancer (ABC); assay: Phase I clinical trial (Example 1): antitumor activity of ET-743 in combination with doxorubicin; assay type: in vivo, human; set-up: key to BEST RESP: confirmed partial response (PR); long lasting (>6 months) stable disease (SD)
Protocol: In this multicenter dose and LTS finding trial, patients were assigned consecutively to start either with sequence A (ET-743 before Doxo) or with the reverse sequence (B) at the following dose levels every 21 days: […] Oral steroids premedication for ET-743 was given 24 h before and for 48 h following the day of treatment. […] Patients continued treatment until progressive disease (PD) or intolerance, and were […] 2 cycles for activity. In this study, 22 patients were enrolled and evaluable. The patients were required to have normal liver, renal, cardiac and haematologic functions and good performance status for entry into the study. Enrolment was restricted to breast cancer and soft tissue sarcoma.

[2] = human, in vivo

SMILES: COc1cc2c(cc1O)CCN[C@]21CS[C@@H]2c3c(OC(C)=O)c(C)c4c(c3[C@H](COC1=O)N1[C@@H]2[C@H]2c3c(cc(C)c(OC)c3O)C[C@@H]([C@@H]1O)N2C)OCO4 [ET-743, ecteinascidin 743]
- patients with confirmed partial response (PR) ([1]; ET-743 dose level 600 μg/m^2 + Doxo 60 mg/m^2): 2
- patients with confirmed partial response (PR) ([1]; ET-743 dose level 700 μg/m^2 + Doxo 60 mg/m^2): 1
- patients with confirmed partial response (PR) ([1]; ET-743 dose level 800 μg/m^2 + Doxo 60 mg/m^2): 2
- TTP (Time to Progression) ([1]; PT # 3, STS, ET-743 600 μg/m^2 + Doxo 60 mg/m^2): 5 months
- BEST RESP ([1]; PT # 3, STS, ET-743 600 μg/m^2 + Doxo 60 mg/m^2, LN, lung, bone): PR
- TTP (Time to Progression) ([1]; PT # 5, STS, ET-743 600 μg/m^2 + Doxo 60 mg/m^2): 12 months
- BEST RESP ([1]; PT # 5, STS, ET-743 600 μg/m^2 + Doxo 60 mg/m^2, Pelvis, bone): SD
- TTP (Time to Progression) ([1]; PT # 9, STS-ovary, ET-743 600 μg/m^2 + Doxo 60 mg/m^2): 5 months
- BEST RESP ([1]; PT # 9, STS-ovary, ET-743 600 μg/m^2 + Doxo 60 mg/m^2, Abdo, skin): PR
- TTP (Time to Progression) ([1]; PT # 10, STS, ET-743 600 μg/m^2 + Doxo 60 mg/m^2): 5 months
- BEST RESP ([1]; PT # 10, STS, ET-743 600 μg/m^2 + Doxo 60 mg/m^2, Lung): SD
- TTP (Time to Progression) ([1]; PT # 11, STS-uterus, ET-743 700 μg/m^2 + Doxo 60 mg/m^2): 6+ months
- BEST RESP ([1]; PT # 11, STS-uterus, ET-743 700 μg/m^2 + Doxo 60 mg/m^2, Lung): SD
- TTP (Time to Progression) ([1]; PT # 13, STS, ET-743 700 μg/m^2 + Doxo 60 mg/m^2): 7+ months
- BEST RESP ([1]; PT # 13, STS, ET-743 700 μg/m^2 + Doxo 60 mg/m^2, Lung, mediastinum, LN): PR
- TTP (Time to Progression) ([1]; PT # 15, STS-uterus (prior adjuvant doxo-6 cycles), ET-743 800 μg/m^2 + Doxo 60 mg/m^2): 4 months
- BEST RESP ([1]; PT # 15, STS-uterus (prior adjuvant doxo-6 cycles), ET-743 800 μg/m^2 + Doxo 60 mg/m^2, Abdomen, pelvis): PR
- TTP (Time to Progression) ([1]; PT # 16, ABC, ET-743 800 μg/m^2 + Doxo 60 mg/m^2): 5+ months
- BEST RESP ([1]; PT # 16, ABC, ET-743 800 μg/m^2 + Doxo 60 mg/m^2, Pleura, chest wall, LN): PR
- TTP (Time to Progression) ([1]; PT # 18, STS-cervix, ET-743 800 μg/m^2 + Doxo 60 mg/m^2): 6+ months
- BEST RESP ([1]; PT # 18, STS-cervix, ET-743 800 μg/m^2 + Doxo 60 mg/m^2, Lung): SD
- TTP (Time to Progression) ([1]; PT # 21, STS, ET-743 800 μg/m^2 + Doxo 60 mg/m^2): 4+ months
- BEST RESP ([1]; PT # 21, STS, ET-743 800 μg/m^2 + Doxo 60 mg/m^2, Lung, subcutaneous): SD
- toxicity that defined the MTD [2]: prolonged grade 4 neutropenia/febrile neutropenia
